Experimental data published in the RNAGym collection of RNA variant scans (doi:10.7554/elife.90254).
The source gives no read counts; variants with many changes may rest on few reads.

B1: LINE1-full (parent)
chain: UACGUAGGUGGUUUUCCCCUGAUAGUGCUAAGGGGGCCUGGAAGUUUGGACUGGGCAGAGCUCAACACAGCGUGGCAAAGUGGCUGUGGCUAGACUGCCUCUCUGGAUUCCUCGUCACUCAGCAGGGCAUCUCUGAGAGAAAUGCC

Variants of: B1
Assay: self-cleavage, relative activity (ratio to wild type); higher = more cleavage; in vitro, sequencing; the parent is a self-cleaving ribozyme

Row | Variant | self-cleavage
1 | A43G U45C U46C G88U C116U | 0.06
2 | A43G U45C U132C | 0.31
3 | A43G U45G U52A G126U | 1.39
4 | A43G U46A A50G U62A A69G G72U G83A U108C U130C | 0
5 | A43G U46A U109C A142G | 0.69
6 | A43G U46C A77U U134A | 1.39
7 | A43G U46C U81C A140G | 2.12
8 | A43G U46C U100C | 2.04
9 | A43G U46C U134C | 1.15
10 | A43G U47A A65G U143C | 0.14
11 | A43G U47A G97A | 0.04
12 | A43G U47C A121G G126A | 1.35
13 | A43G U52A A64U A94G C133U | 0.12
14 | A43G U52A A142G | 1.46
15 | A43G U52A U143A | 0.74
16 | A43G U52G A59G A138G | 1.84
17 | A43G U62A A78G | 0.06
18 | A43G U62A U73A C95U U143C | 0.03
19 | A43G U62C A64G U130A | 0
20 | A43G U73A A138G A142G | 1.27
21 | A43G U73A G93U | 0
22 | A43G U73A U112C | 1.23
23 | A43G U73C G86A | 0.1
24 | A43G U73C U104A U132C | 0.95

Row | Variant | self-cleavage
25 | A43G U73C U134C | 1.79
26 | A43G U73G A140G | 1.23
27 | A43G U81A A138G | 0.79
28 | A43G U81A G114A A138G | 1.53
29 | A43G U81A U96G | 0.12
30 | A43G U81A U132C | 2.12
31 | A43G U81C U87C | 0
32 | A43G U85C A94G | 0
33 | A43G U85C A140U | 0.35
34 | A43G U85C U109C G125U | 0.36
35 | A43G U85C U132A | 0.12
36 | A43G U87C A124U | 0.46
37 | A43G U87C U104A | 0.08
38 | A43G U87C U115C | 0
39 | A43G U96A C110A | 0.08
40 | A43G U96A U109C | 0.08
41 | A43G U96C U102C | 0.34
42 | A43G U100C U130C | 2.51
43 | A43G U102A A117U U143G | 1.7
44 | A43G U102C A142G | 0
45 | A43G U102C G126U A138G | 1.97
46 | A43G U104A U119C | 0.42
47 | A43G U104G G105U | 0.98
48 | A43G U109C A142G | 1.92

Row | Variant | self-cleavage
49 | A43G U112C C145A | 1.59
50 | A43G U112C U130A | 1.69
51 | A43G U115C A117U A141G | 0.77
52 | A43G U115C A140G | 1.84
53 | A43G U119C A142G | 1.36
54 | A43U A50G A78G G137U A138G | 0.55
55 | A43U A57G G60U U130C | 0.01
56 | A43U A57U A121G | 0.11
57 | A43U A65U U96C | 0.12
58 | A43U A67U C71A | 0.03
59 | A43U A67U U73C A94G U130C | 0
60 | A43U A77U U85C | 0.02
61 | A43U A77U U85C U109C | 0.19
62 | A43U A94G A136U | 0.3
63 | A43U A124G A142G | 0.86
64 | A43U A140G A142C | 0.9
65 | A43U G53U A77U C84U | 0.08
66 | A43U G60U U96A A117G | 0.04
67 | A43U G80A A94G | 0.18
68 | A43U U45A A77U | 0.8
69 | A43U U45C U134C U143C | 0
70 | A43U U46C A138U | 1.12
71 | A43U U47C A65G | 0.11
72 | A43U U62A U143C | 0.05

Row | Variant | self-cleavage
73 | A43U U62C A142G | 0.11
74 | A43U U81C C110A | 1.05
75 | A43U U81C U102A | 1.31
76 | A43U U87A U143C | 0.04
77 | A43U U91C U130C A138G U143A | 0.92
78 | A43U U100A A129G | 1.01
79 | A43U U100C A117G | 0.99
80 | A43U U100C U108C | 1.84
81 | A43U U109C A117G A136U | 0.84
82 | A43U U112C A142G | 1.87
83 | G44A A59G A94G | 0.14
84 | G44A A77U U91C U130C | 0.56
85 | G44A C110A A121G | 1.47
86 | G44A G127A U143C | 1.62
87 | G44A U45G A67G | 0.31
88 | G44A U45G U134C | 1.61
89 | G44A U47A U115C A141G | 0.54
90 | G44A U52C A57U C63A C146U | 0.04
91 | G44A U109C U143A | 0.99
92 | G44A U115C A124G U132C | 1.1
93 | G44A U115C A129U A142G | 2.61
94 | G44U A79G C90U | 0.03
95 | G44U C118U A141G | 0.6
96 | G44U U46C A50C G89A A129G U143A | 0.16

Row | Variant | self-cleavage
97 | U45A A50U A64U A65U C113U | 0.03
98 | U45A A59G U73C A78G G114A | 0.07
99 | U45A A59G U96C | 0.11
100 | U45A A64G C76U | 0.17
101 | U45A A64G U73C A117U U132C U143C | 1.06
102 | U45A A65G U104C C120U A141G | 0.05
103 | U45A A67G A77G | 0.69
104 | U45A A67U U87A C133A | 1.1
105 | U45A A69G U109C | 0.84
106 | U45A A77G U87A U100G A136U | 0.08
107 | U45A A79G U134A | 0.88
108 | U45A A92G A136G | 0.07
109 | U45A C51A U73C | 1.21
110 | U45A C71A U96C | 0.02
111 | U45A C76U C146U | 2.43
112 | U45A C84G U85A U100A A140U | 0.03
113 | U45A G72A U85A | 0.04
114 | U45A G83A U87A U91C | 0.07
115 | U45A G88A A121U | 0.04
116 | U45A G105C A121G | 2.36
117 | U45A U46G U62C U112A | 0
118 | U45A U47A A141G A142G | 1.04
119 | U45A U52C A77G C120U | 1.46
120 | U45A U62C C76A | 0.01

Row | Variant | self-cleavage
121 | U45A U73C A117U | 1.73
122 | U45A U81G U108C A136G | 1.84
123 | U45A U87C U102C | 0
124 | U45A U91C U134C | 0.68
125 | U45A U91C U143A | 0.63
126 | U45A U109A A138G | 2.04
127 | U45A U115C A142G | 1.55
128 | U45A U134C A136G | 1.56
129 | U45C A50G A69U G126A A138G | 0.11
130 | U45C A50G U85A U112A U115A | 0
131 | U45C A50U A79G | 0.81
132 | U45C A57G A67U | 0.17
133 | U45C A57U U91C | 0.05
134 | U45C A59G A79G U134G | 0
135 | U45C A59U C99U A129U | 0.33
136 | U45C A59U U109C U112C A138G | 1.1
137 | U45C A64U G80A A141G U143A | 0.76
138 | U45C A64U U87A C128U A140G | 0.03
139 | U45C A65G A94G | 0
140 | U45C A65G G88A | 0.05
141 | U45C A67C U73C A77U | 0
142 | U45C A67U U81C A94G C113A | 0
143 | U45C A69C G97U G127A | 0
144 | U45C A69U A140G | 0.06

Row | Variant | self-cleavage
145 | U45C A77G U102A A124C | 0
146 | U45C A77U U112C G125A | 1.41
147 | U45C A78G A117U | 1.12
148 | U45C A78G A138G | 2.12
149 | U45C A79G A107G A129U | 0
150 | U45C A79G C99U A140G | 0.42
151 | U45C A79G U134C G144U | 1.53
152 | U45C A92U A124G | 0.56
153 | U45C A94U A141G | 0.48
154 | U45C A94U U143C | 0.19
155 | U45C A117G A140G | 2.92
156 | U45C A117G A142G | 2.45
157 | U45C A117G U130C | 1.84
158 | U45C A136G A140G | 1.72
159 | U45C A136U G144A | 1.68
160 | U45C A138C A142G | 0.74
161 | U45C C56U C95U A138G | 0.07
162 | U45C C63U U143A | 0.38
163 | U45C C68A A141G | 0
164 | U45C G48A A69G U119C | 0.16
165 | U45C G53A U87A U96C U104A | 0.1
166 | U45C G82A G93U A138G | 0
167 | U45C G83A A140G | 0.64
